This note sets out measurements from patent US7544708B2, “Azabicyclo derivatives as muscarinic receptor antagonists” (Ranbaxy Laboratories Limited, priority 2002, dated 2009).

This assay has as its system isolated rat bladder. In words: Functional experiments using isolated rat bladder (carbachol concentration response). As to conditions: isolated rat bladder strips, carbachol-induced contraction. Here is the method:
The bladder was cut into longitudinal strips (3 mm wide and 5-6 mm long) and mounted in 10 ml organ baths at 30° C., with one end connected to the base of the tissue holder and the other end connected to a polygraph through a force displacement transducer. […] At the end of equilibration period the stabilization of the tissue contractile response was assessed with 1 μmol/L of Carbachol consecutively for 2-3 times. Subsequently a cumulative concentration response curve to carbachol (10^−9 mol/L to 3×10^−5 mol/L) was obtained. After several washes, once the baseline was achieved, cumulative concentration response curve was obtained in presence of NCE (NCE added 20 min. prior to the second CRC).

Molecules are shown by their SMILES. Structures can show the parent of a compound that is named as a salt.

Regarding `O=C(NCC1C2CNCC21)C(O)(c1ccccc1)C1CCC(F)(F)C1` (mixture of isomers) [Compound 14, (2R,2S) (1α,5α,6α)-N-[3-azabicyclo[3.1.0]hexyl-6-(aminomethyl)-yl]-2-hydroxy-2-(3,3-difluorocyclopentyl)-2-phenyl acetamide tartarate salt], the “Functional Assay pKB” value stood at 8.73 ± 0.18.

Take `O=C(NC[C@H]1[C@@H]2CNC[C@@H]21)C(O)(c1ccccc1)C1CCCC1` (mixture of isomers) [Compound 1, (2R,2S) (1α,5α,6α)-N-[3-azabicyclo[3.1.0]hexyl-6-(aminomethyl)-yl]-2-hydroxy-2-cyclopentyl-2-phenyl acetamide]: the “Functional Assay pKB” value is 9.36 ± 0.17.

Take `O=C(NC[C@H]1[C@@H]2CNC[C@@H]21)C(O)(c1ccccc1)C1CCCC1` (mixture of isomers) [Compound 2, (2R,2S) (1α,5α,6α)-N-[3-azabicyclo[3.1.0]hexyl-6-(aminomethyl)-yl]-2-hydroxy-2-cyclopentyl-2-phenyl acetamide hydrochloride salt]: the “Functional Assay pKB” value (hydrochloride salt) turned out to be 9.16 ± 0.18.

As for `COC(C(=O)NC[C@H]1[C@@H]2CNC[C@@H]21)(c1ccccc1)C1CCCC1` (mixture of isomers) [Compound 7, (2R,2S) (1α,5α,6α)-N-[3-azabicyclo[3.1.0]hexyl-6-(aminomethyl)-yl]-2-methoxy-2-cyclopentyl-2-phenyl acetamide], the “Functional Assay pKB” value came out at 8.56 ± 0.11.

Consider `O=C(NC[C@H]1[C@@H]2CNC[C@@H]21)[C@](O)(c1ccccc1)C1CCCC1` [Compound 4, (2R)-(1α,5α,6α)-N-[3-azabicyclo[3.1.0]hexyl-6-(aminomethyl)-yl]-2-hydroxy-2-cyclopentyl 2-phenyl acetamide hydrochloride salt], for which the “Functional Assay pKB” value worked out at 9.28 ± 0.2.

As for `O=C(NC[C@H]1[C@@H]2CNC[C@@H]21)[C@@](O)(c1ccccc1)C1CCCC1` [Compound 6, (2S)-(1α,5α,6α)-N-[3-azabicyclo[3.1.0]hexyl-6-(aminomethyl)-yl]-2-hydroxy-2-cyclopentyl 2-phenyl acetamide hydrochloride salt], the “Functional Assay pKB” value is 7.8 ± 0.09.

As for `O=C(NCC1C2CNCC21)C(O)(c1ccccc1)C1CCC1` [Compound 10, (2R,2S) (1α,5α,6α)-N-[3-azabicyclo[3.1.0]hexyl-6-(aminomethyl)-yl]-2-hydroxy-2-cyclobutyl-2-phenyl acetamide tartarate salt], the “Functional Assay pKB” value was 8.73 ± 0.17.

Take `Cc1ccc(O)c([C@H](CCN(C(C)C)C(C)C)c2ccccc2)c1` [Tolterodine, reference compound]: the “Functional Assay pKB” value is recorded as 8.86 ± 0.12.
